Results from PMC4336329 (PLoS ONE, 2015).
Screen size: about 310,000 compounds; about 2,200 (0.71%) showed an effect of 50% or more. The effect is printed as a negative number. Some of the results follow.

Target: human ether-à-go-go-related gene (hERG) potassium channel (human, UniProt Q12809)
Experiment: primary screen, population patch clamp on CHO cells stably expressing hERG

human ether-à-go-go-related gene (hERG) potassium channel, sequence (Q12809 whole entry, looked up): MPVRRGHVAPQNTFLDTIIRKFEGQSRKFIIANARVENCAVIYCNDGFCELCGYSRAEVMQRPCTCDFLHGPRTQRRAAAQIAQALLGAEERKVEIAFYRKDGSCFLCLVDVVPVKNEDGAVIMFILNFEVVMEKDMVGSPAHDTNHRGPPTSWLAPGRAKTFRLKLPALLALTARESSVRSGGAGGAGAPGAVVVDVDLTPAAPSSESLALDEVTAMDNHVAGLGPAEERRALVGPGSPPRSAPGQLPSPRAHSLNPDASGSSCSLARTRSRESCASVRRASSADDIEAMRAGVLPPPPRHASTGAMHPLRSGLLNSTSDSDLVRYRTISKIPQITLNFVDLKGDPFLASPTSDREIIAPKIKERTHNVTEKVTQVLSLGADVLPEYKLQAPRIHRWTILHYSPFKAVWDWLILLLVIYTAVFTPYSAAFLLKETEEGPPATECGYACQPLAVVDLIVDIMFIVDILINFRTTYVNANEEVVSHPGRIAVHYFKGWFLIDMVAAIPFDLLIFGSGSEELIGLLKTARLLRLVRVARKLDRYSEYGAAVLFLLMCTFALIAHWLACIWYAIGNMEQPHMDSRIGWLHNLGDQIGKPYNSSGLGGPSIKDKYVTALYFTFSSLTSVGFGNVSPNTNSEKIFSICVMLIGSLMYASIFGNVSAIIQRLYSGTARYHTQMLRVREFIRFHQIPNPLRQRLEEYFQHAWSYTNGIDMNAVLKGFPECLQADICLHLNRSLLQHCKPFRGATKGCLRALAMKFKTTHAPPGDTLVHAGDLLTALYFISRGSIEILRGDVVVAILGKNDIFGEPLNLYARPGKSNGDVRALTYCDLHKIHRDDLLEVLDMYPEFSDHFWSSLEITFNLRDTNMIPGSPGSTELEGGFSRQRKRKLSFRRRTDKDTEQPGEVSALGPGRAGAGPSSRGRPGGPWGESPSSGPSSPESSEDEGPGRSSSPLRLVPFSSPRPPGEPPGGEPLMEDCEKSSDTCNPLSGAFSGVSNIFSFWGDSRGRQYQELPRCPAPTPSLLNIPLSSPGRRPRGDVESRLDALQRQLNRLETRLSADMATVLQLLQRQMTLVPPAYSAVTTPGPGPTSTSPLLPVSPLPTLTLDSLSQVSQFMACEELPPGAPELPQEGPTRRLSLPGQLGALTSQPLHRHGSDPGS

SMILES	hERG current change (%, negative = inhibition) at 1uM [%]
O=C(CC12CC3CC(CC(C3)C1)C2)NCc1ccc(F)cc1	13.7
CN(Cc1cccs1)C(=O)CSc1nc(N)cc(N)n1	18.6
COCCn1c(-c2ccc(OC)c(OC)c2)nc2ccccc21	1.57
O=C(NCc1ccc(Cl)cc1)N1CCN(S(=O)(=O)c2ccccc2)CC1	6.78
CN(C)CCN(Cc1ccco1)C(=O)c1cc2c(Cl)nc3ccccc3c2s1	-13.7
O=C(CN1C(=O)c2ccccc2S1(=O)=O)c1ccccc1F	4.57
O=C(CN1CCC(n2nnc3cc(F)ccc32)CC1)NCCc1ccccc1	-6.52
O=C1CN(C(=O)c2ccccc2Cl)c2ccccc2N1	12.3
O=C(CNc1cccc(Cl)c1)NNC(=S)NCc1ccccc1	14.1
CCN1CCN(S(=O)(=O)c2ccc(Cl)c(C(=O)N(C)C(c3ccccc3)c3ccccc3)c2)CC1	12.6
Br.FC(F)(F)c1ccc(N2CCOCC2)c(NC2=NCCCCC2)c1	18.8
CC1=C(C)/C(=N\OC(=O)/C=C/c2ccccc2)C=CC1=O	14.2
O=C(CCC(=O)CCN1CCCCC1)CCN1CCCCC1	4.17
O=C(NNC(=O)c1ccccc1[N+](=O)[O-])c1ccc(NC(=O)c2ccccc2)cc1	3.1
Cc1cccc(OCCOC(=O)C2CCN(S(=O)(=O)c3ccc(C)c(C)c3)CC2)c1	8.14
O=C(NC(=S)N1CCCCCC1)c1ccc(Cl)cc1Cl	11.6
C[C@H]1CCCC(=O)CCCCCc2cc(O)cc(O)c2C(=O)O1	6.66
S=C1NCCOCCNC(=S)NCCOCCOCCOCCN1	10.9
Cc1ccccc1NC(=O)c1c([N+](=O)[O-])cnn1C	15.7
N#CCCN(CCC#N)C(=O)c1ccc(Cl)cc1	9.68
O=C(Nc1nc2c(s1)COc1ccccc1-2)c1cccs1	8.46
COC(=O)c1sccc1NC(=O)CC1C(=O)NCCN1C(=O)c1c(F)cccc1Cl (stereo not drawn)	9.53
O=C(COC(=O)c1nsc(Cl)c1Cl)NC1CCCC1	11.2

SMILES	hERG current change (%, negative = inhibition) at 1uM [%]
Cc1csc(SCC(=O)Nc2ccc(C)c(F)c2)n1	0.854
COCCN(C(=O)c1csnn1)C(C(=O)NC1CCCCC1)c1sccc1C (stereo not drawn)	-0.647
c1ccc(-c2nc(N3CCNCC3)nc3ccccc23)cc1	-8.36
O=C(CSc1nc2ccccc2s1)NCc1cc([N+](=O)[O-])ccc1O	10.4
CC1CCCCC1NC(=O)Cn1cccc1C(=O)c1ccccc1 (stereo not drawn)	14
CCc1nnc2n1N=C(c1ccc(Cl)cc1)CS2	9.26
COc1ccc(C2CC(C(F)(F)F)n3ncc(C(=O)Nc4cccc(O)c4)c3N2)cc1OC (stereo not drawn)	7.53
CCN(CC)S(=O)(=O)c1cccc(NC(=O)CNC2CCCCCC2)c1.O=C(O)C(=O)O	-0.491
Cc1cc(C)cc(N(CC(=O)NC2CCCC2)C(=O)CCC(=O)Nc2nccs2)c1	15.5
COc1ccc(-c2nn(C)c(=O)c3ccccc23)cc1NC(=O)Cn1nc(-c2ccccc2)c2ccccc2c1=O	7.65
Cc1ccc(C(=O)N/C(=C/c2ccco2)C(=O)O)cc1	7.27
CCOP(=O)(OCC)C1NC(=O)N(c2ccccc2)C1=O (stereo not drawn)	12.6
O=C(O)/C=C/C(=O)Nc1ccc(OC(F)(F)F)cc1Br	12.4
COc1ccc(C2C(C#N)=C(N)Nc3onc(C(C)(C)C)c32)c(OC)c1 (stereo not drawn)	2.98
CCCC1(C(=O)OC)NC(c2cc(OC)c(OC)c(OC)c2)C2C(=O)N(CC)C(=O)C21 (stereo not drawn)	8.7
CC(C)(C)C(=O)Nc1scc(-c2ccc(-c3ccccc3)cc2)c1C(=O)O	21.8
C=CCSc1nnc(NC(=O)C23CC4CC(CC(NC(C)=O)(C4)C2)C3)s1	12.8
CC(=O)c1ccc2noc(-c3cccc(F)c3)c2c1	12.2
COc1ccc(-n2ncc3c(Nc4cccc(C)c4)ncnc32)cc1	3.99
O=C(CCn1nnc2ccccc21)Nc1nnc(COc2ccccc2F)s1	12.7
COc1ccc(N/C(=N\c2nc(C)cc(C)n2)NC(C)=O)cc1OC	16.7
CC1CN(C(=O)c2cc3cc(Cl)ccc3[nH]2)CC(C)O1 (stereo not drawn)	9.39
CCNC(=O)CSc1nnc(-c2ccccc2Br)n1-c1cccc(C(F)(F)F)c1	2.88

SMILES	hERG current change (%, negative = inhibition) at 1uM [%]
O=S(=O)(NC1CCCC1)c1ccc(S(=O)(=O)N(Cc2cccs2)CC2CCCO2)cc1 (stereo not drawn)	14.2
CSc1nsc(SC)c1C(=O)Nc1ccc(Cl)cc1	14.7
C#CCOCCOCCOCCNc1nc(N2CCN(C(=O)[C@H](CCCCN)n3cc(C(N)[C@H](C)CC)nn3)CC2)nc(N2CCN(C(=O)[C@H](CCC(=O)O)n3cc(C(N)[C@H](C)CC)nn3)CC2)n1.Cl (stereo partly drawn)	7.77
O=C(CCc1nc2sc3c(c2c(=O)[nH]1)CCCC3)Nc1cccc(Cl)c1	3.08
Cc1ccc(-n2c(Cc3cccn3C)nnc2SCC(N)=O)cc1	-3.2
Cc1ccc(NCC(=O)N/N=C/c2cc(O)ccc2[N+](=O)[O-])cc1	14
COc1ccc2[nH]c3c(c2c1)CCNC3c1ccc([N+](=O)[O-])o1.Cl (stereo not drawn)	4.08
COC(=O)c1ccc(NC(=O)CN2C(=O)CNC2=O)cc1	14.9
CCCOC(=S)NC(=O)c1sc2ccccc2c1Cl	1.39
CCCCOc1ccc2c(C)cc(=O)oc2c1OCCCC	8.25
CCN=C1SC(C(=O)Nc2ccc(OCC)cc2)CC(=O)N1CC (stereo not drawn)	11.7
CCOc1c(CNCCCSc2nc(C)cc(C)n2)cccc1OC.Cl	10.3
C=CCn1c(O)c(C(C)=NC(C)c2ccccc2)c(=O)[nH]c1=O (stereo not drawn)	10.4
Cc1ccc([N+](=O)[O-])c(C(=O)Nc2cccnc2Cl)c1	4.94
CCC(=O)Nc1ccc(NC(=O)c2ccc3c(c2)OCO3)cc1	3.87
COc1ccc(CCNC(=O)c2ccc(COc3ccccc3OC)o2)cc1	4.54
Cc1cc(=O)n(-c2ccccc2Cl)[nH]1	10.4
COc1ccccc1-c1noc(CCCC(=O)NC2CCCC2)n1	15.1
Cc1cc(C)nc(Sc2nc(Nc3ccccc3)nc(Sc3nc(C)cc(C)n3)n2)n1	4.2
COc1cc(OC)c(NC2=NCCCCC2)cc1Cl	9.81
Cc1ccccc1C(=O)NC(=S)Nc1ccc(S(=O)(=O)N2CCN(C)CC2)cc1	4.91
CCc1cc2c(SCC(=O)c3ccc(Cl)s3)ncnc2s1	5.79
Cc1ccc(C)c(NC(=O)COc2coc(CN3CCc4ccccc4C3)cc2=O)c1	-5.2

SMILES	hERG current change (%, negative = inhibition) at 1uM [%]
CC(Sc1nnc2c(n1)C1CCC2(C)C1(C)C)C(=O)Nc1ccccc1 (stereo not drawn)	6.7
CCOc1ccc2[nH]c3c(N4CCC5(CC4)OCCO5)ncnc3c2c1	14.6
O=C1OC(c2ccccc2)=N/C1=C\C=C\c1ccco1	11.5
CCN(CC)c1ncnnc1-c1ccccc1	9.64
Cc1ccc(S(=O)(=O)NCCC(=O)OCC(=O)N2CCCC2=O)cc1C	8.35
Cc1ccccc1NCN1C(=O)C2CCC(C)(C1=O)C2(C)C (stereo not drawn)	6.18
Cc1ccc(S(=O)(=O)Nc2ccccc2C(=O)Nc2ccc(S(=O)(=O)Nc3nccc(C)n3)cc2)cc1	12.3
CCN(CC)c1ccc(/C=N/NC(=S)NCc2ccc(OC)cc2)cc1	14.5
C=CCOc1c(CNC2CCCC2)cc(Cl)cc1OC.Cl	5.81
COc1ccc(C(C)(C)C)cc1NC(=O)c1cc(S(=O)(=O)N(C)C)ccc1N1CCCC1	0.432
O=C(N[C@@H](Cc1ccccc1)C(=O)O)c1ccncc1.O=C(O)C(F)(F)F	8.65
S=c1[nH]nc(-c2cccs2)n1/N=C/c1cccs1	11.5
c1nc(COc2nsnc2N2CCOCC2)cs1	0.141
Cc1ccc(SCCN2CCC(C(C)(C)C)CCC2=O)cc1 (stereo not drawn)	11.6
Cc1c(-c2nc3ccccc3[nH]2)cnn1C	11.4
Cc1c(Cl)cccc1NC(=O)c1ccco1	12.6
COc1ccc(CCNC(=O)CCn2c(SCC#N)nc3ccccc3c2=O)cc1OC	2.94
Nc1nnnn1/N=C/c1cc(Cl)ccc1O	15.2
CCOC(=O)C(C)Sc1nnc2c3ccccc3n(C)c2n1 (stereo not drawn)	8.45
O=C(NC1CC1)c1ccc(Cl)c(S(=O)(=O)N2CCOCC2)c1	6.71
CCOc1cc(C(C(=O)NCC2CCCO2)N(C(=O)Cn2nnc3ccccc32)c2ccccc2C)ccc1O (stereo not drawn)	20.8
